T/C data for ten compounds are collected here from PubChem BioAssay AID248 (DTP/NCI, 2004).

Inconclusive results and toxic doses are left out. For part of its entries the source gives two or more results. This is not the full list of results. An entry can have further records. Results that share an entry are repeated measurements in other runs, samples, wells, individuals or studies. Brackets tell where a record comes from. Letters hold for one entry only.

For this test, the system named is L1210 leukemia ip in BDF1 mice, survival T/C. Description: NCI In Vivo Anticancer Drug Screen. Data for tumor model L1210 Leukemia (intraperitoneal) in B6D2F1 (BDF1) mice. The settings on record: endpoint: mean survival time, higher = longer survival.
Where [1] appears, read: dose: 200.0 mg/kg/injection, schedule: Q01DX001 (ip), vehicle: carboxymethylcellulose (CMC).

Take `CCCCCCOB(OCCCCCC)OCCCCCC`: the T/C under setting [1] is 95 % of control, 100 % of control, 156 % of control.

Turning to `COC1OC(CO)C(O)C(NC(=O)N(C)N=O)C1O` (configuration not stated), the T/C (dose: 200.0 mg/kg/injection, schedule: Q01DX009 (ip), vehicle: saline) was 100 % of control [sample A] and 177 % of control, 193 % of control [sample B].

Regarding `NC(=O)SCC(=O)Nc1ccc2ncccc2c1`, under setting [1], the T/C was 89 % of control, 109 % of control, 166 % of control.

Consider `O=c1cnn(C2OC(CO)C(O)C2O)c(=O)[nH]1` (configuration not stated), for which the T/C (dose: 400.0 mg/kg/injection, schedule: Q01DX Z (oral), vehicle: saline) is 93 % of control and 166 % of control.

For the compound `CCN(CC)CC(C)Nc1ccc([N+](=O)[O-])c2sc3ccccc3c(=O)c12` (configuration not stated), the T/C reads like this: (dose: 41.0 mg/kg/injection, schedule: Q01DX Z (ip), vehicle: methylcellulose (MC)) 116 % of control and 150 % of control; (dose: 60.0 mg/kg/injection, schedule: Q01DX Z (ip), vehicle: carboxymethylcellulose (CMC)) 122 % of control, 185 % of control, 195 % of control; (dose: 90.0 mg/kg/injection, schedule: Q01DX Z (ip), vehicle: carboxymethylcellulose (CMC)) 92 % of control and 171 % of control.

Consider `CN(C)CCOC(=O)N1c2ccccc2C(C)(C)c2ccccc21`, for which the T/C (dose: 100.0 mg/kg/injection, schedule: Q01DX001 (ip), vehicle: water) is 91 % of control and 183 % of control.

In the case of `Cc1ccc(O)c(C)n1`, the T/C (dose: 100.0 mg/kg/injection, schedule: Q01DX009 (ip), vehicle: saline) was 106 % of control and 154 % of control.

Turning to `CC(=O)Nc1ccn(C2OC(COC(C)=O)C(OC(C)=O)C2OC(C)=O)c(=O)n1` (configuration not stated), the T/C (dose: 400.0 mg/kg/injection, schedule: Q01DX Z (ip), vehicle: carboxymethylcellulose (CMC)) is 119 % of control and 190 % of control.

On to `CCCCC(CCCC)(S(=O)(=O)CC)S(=O)(=O)CC`, for which, where the note is “dose: 400.0 mg/kg/injection, schedule: Q01DX001 (ip), vehicle: carboxymethylcellulose (CMC)”, the T/C is recorded as 94 % of control, 95 % of control, 166 % of control.

Consider `O=C(C(=O)N1CC2OC2C1)N1CC2OC2C1` (configuration not stated), for which, for the setting “dose: 100.0 mg/kg/injection, schedule: Q04DX002 (ip), vehicle: saline with Tween-80”, the T/C is 105 % of control and 333 % of control.
